From the supplement of paper PMC8728848
The other results are listed elsewhere or left out.

Columns and labels:
Test in all cases: glycan array binding signal (z-score within array); higher = stronger binding
Conditions in all cases: glycan notation: IUPAC condensed, linker removed
[1] = target: Man(a1-2)Man(a1-2)Man(a1-3)[Man(a1-3)[Man(a1-6)]Man(a1-6)]Man(b1-4)GlcNAc(b1-4)GlcNAc
Outline: (§1)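 Glycan array data were curated from 3228 arrays in the Consortium for Functional Glycomics database and kept only where the protein sequence was available. Glycan names were converted to IUPAC-condensed notation, and columns mapping to the same glycan were averaged. The binding signal is a within-array Z-score, averaged across arrays of the same protein sequence at different concentrations or buffers and across linkers. Negative Z-scores can be read as non-binding.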

[2] = target: Man(a1-2)Man(a1-2)Man(a1-6)[Man(a1-3)]Man
Outline: as §1

Man(a1-2)Man(a1-3)Man = target: Man(a1-2)Man(a1-3)Man
Outline: as §1

[3] = target: Man(a1-2)Man(a1-3)[Man(a1-2)Man(a1-6)[Man(a1-3)]Man(a1-6)]Man(b1-4)GlcNAc(b1-4)GlcNAc
Outline: as §1

[4] = target: Man(a1-2)Man(a1-3)[Man(a1-2)Man(a1-6)]Man
Outline: as §1

[5] = target: Man(a1-2)Man(a1-3)[Man(a1-2)Man(a1-6)]Man(a1-6)[Man(a1-2)Man(a1-2)Man(a1-3)]Man
Outline: as §1

[6] = target: Man(a1-2)Man(a1-3)[Man(a1-2)Man(a1-6)]Man(a1-6)[Man(a1-2)Man(a1-2)Man(a1-3)]Man(b1-4)GlcNAc(b1-4)GlcNAc
Outline: as §1

[7] = target: Man(a1-2)Man(a1-3)[Man(a1-3)[Man(a1-6)]Man(a1-6)]Man(b1-4)GlcNAc(b1-4)GlcNAc
Outline: as §1

[8] = target: Man(a1-2)Man(a1-3)[Man(a1-6)]Man(a1-6)[Man(a1-2)Man(a1-3)]Man(b1-4)GlcNAc(b1-4)GlcNAc
Outline: as §1

[9] = target: Man(a1-2)Man(a1-6)[Man(a1-3)]Man(a1-6)[Man(a1-2)Man(a1-2)Man(a1-3)]Man
Outline: as §1

[10] = target: Man(a1-2)Man(a1-6)[Man(a1-3)]Man(a1-6)[Man(a1-2)Man(a1-2)Man(a1-3)]Man(b1-4)GlcNAc(b1-4)GlcNAc
Outline: as §1

Man(a1-3)Man = target: Man(a1-3)Man
Outline: as §1

[11] = target: Man(a1-3)Man(a1-6)[Man(a1-3)]Man(b1-4)GlcNAc(b1-4)GlcNAc
Outline: as §1

Man(a1-3)Man(b1-4)GlcNAc = target: Man(a1-3)Man(b1-4)GlcNAc
Outline: as §1

Man(a1-3)[Man(a1-6)]Man = target: Man(a1-3)[Man(a1-6)]Man
Outline: as §1

[12] = target: Man(a1-3)[Man(a1-6)]Man(a1-6)Man(b1-4)GlcNAc(b1-4)GlcNAc
Outline: as §1

[13] = target: Man(a1-3)[Man(a1-6)]Man(a1-6)[Man(a1-2)Man(a1-3)]Man(b1-4)GlcNAc(b1-4)GlcNAc
Outline: as §1

[14] = target: Man(a1-3)[Man(a1-6)]Man(a1-6)[Man(a1-3)]Man
Outline: as §1

[15] = target: Man(a1-3)[Man(a1-6)]Man(a1-6)[Man(a1-3)]Man(b1-4)GlcNAc(b1-4)GlcNAc
Outline: as §1

[16] = target: Man(a1-3)[Man(a1-6)]Man(b1-4)GlcNAc(b1-4)GlcNAc
Outline: as §1

[17] = target: Man(a1-3)[Man(a1-6)]Man(b1-4)GlcNAc(b1-4)[Fuc(a1-6)]GlcNAc
Outline: as §1

Man(a1-6)Man = target: Man(a1-6)Man
Outline: as §1

[18] = target: Man(a1-6)Man(b1-4)GlcNAc(b1-4)GlcNAc
Outline: as §1

Man(b1-4)GlcNAc = target: Man(b1-4)GlcNAc
Outline: as §1

[19] = target: Man(b1-4)Man(b1-4)Man(b1-4)Man
Outline: as §1

[20] = target: Man(b1-4)Man(b1-4)Man(b1-4)Man(b1-4)Man
Outline: as §1

[21] = target: Man(b1-4)Man(b1-4)Man(b1-4)Man(b1-4)Man(b1-4)Man
Outline: as §1

[22] = target: Man6P(a1-3)Man(a1-3)Man(a1-3)Man(a1-2)Man
Outline: as §1

MurNAc(b1-4)GlcNAc = target: MurNAc(b1-4)GlcNAc
Outline: as §1

Neu(a2-3)Gal(b1-4)Glc = target: Neu(a2-3)Gal(b1-4)Glc
Outline: as §1

[23] = target: Neu(a2-3)Gal(b1-4)GlcNAc(b1-3)Gal(b1-4)[Fuc(a1-3)]GlcNAc(b1-3)Gal(b1-4)Glc
Outline: as §1

[24] = target: Neu(a2-3)Gal(b1-4)GlcNAc6S(b1-3)Gal(b1-4)Glc
Outline: as §1

[25] = target: Neu(a2-3)Gal(b1-4)[Fuc(a1-3)]GlcNAc(b1-3)Gal(b1-4)Glc
Outline: as §1

[26] = target: Neu(a2-3)Gal(b1-4)[Fuc(a1-3)]GlcNAc6S(b1-3)Gal(b1-4)Glc
Outline: as §1

[27] = target: Neu(a2-3)Gal6S(b1-4)[Fuc(a1-3)]GlcN(b1-3)Gal(b1-4)Glc
Outline: as §1

Neu(a2-6)Gal(b1-4)Glc = target: Neu(a2-6)Gal(b1-4)Glc
Outline: as §1

[28] = target: Neu4Ac5Ac(a2-3)Gal(b1-4)Glc
Outline: as §1

[29] = target: Neu4Me5Ac(a2-3)Gal(b1-4)Glc
Outline: as §1

Neu5Ac(a2-2)Glc = target: Neu5Ac(a2-2)Glc
Outline: as §1

[30] = target: Neu5Ac(a2-3)4dGal(b1-4)[Fuc(a1-3)]GlcNAc(b1-3)Gal
Outline: as §1

[31] = target: Neu5Ac(a2-3)6dGal(b1-4)[Fuc(a1-3)]GlcNAc(b1-3)Gal
Outline: as §1

Neu5Ac(a2-3)Gal = target: Neu5Ac(a2-3)Gal
Outline: as §1

[32] = target: Neu5Ac(a2-3)Gal(b1-3)6dGalNAc
Outline: as §1

[33] = target: Neu5Ac(a2-3)Gal(b1-3)GalNAc
Outline: as §1

[34] = target: Neu5Ac(a2-3)Gal(b1-3)GalNAc(b1-3)Gal(a1-4)Gal(b1-4)Glc
Outline: as §1

B1: CLEC5A (Homo sapiens), Q9NY25 (protein)
chain: MNWHMIISGLIVVVLKVVGMTLFLLYFPQIFNKSNDGFTTTRSYGTVSQIFGSSSPSPNGFITTRSYGTVCPKDWEFYQARCFFLSTSESSWNESRDFCKGKGSTLAIVNTPEKLKFLQDITDAEKYFIGLIYHREEKRWRWINNSVFNGNVTNQNQNFNCATIGLTKTFDAASCDISYRRICEKNAK
In the case of B1, the “glycan array binding signal (z-score)” value [1] is reported as -0.127, the “glycan array binding signal (z-score)” value [2] is reported as -0.122 and the “glycan array binding signal (z-score)” value (Man(a1-2)Man(a1-3)Man) is reported as 0.069. The “glycan array binding signal (z-score)” value [3] was -0.32, the “glycan array binding signal (z-score)” value [4] was -0.192 and the “glycan array binding signal (z-score)” value [5] was 0.057. For the same binder, the “glycan array binding signal (z-score)” value [6] was -0.416, the “glycan array binding signal (z-score)” value [7] was 0.933 and the “glycan array binding signal (z-score)” value [8] was -0.185. The “glycan array binding signal (z-score)” value [9] was -0.249, the “glycan array binding signal (z-score)” value [10] was -0.343 and the “glycan array binding signal (z-score)” value (Man(a1-3)Man) was -0.127. For the same binder, the “glycan array binding signal (z-score)” value [11] was -0.32, the “glycan array binding signal (z-score)” value (Man(a1-3)Man(b1-4)GlcNAc) was -0.32 and the “glycan array binding signal (z-score)” value (Man(a1-3)[Man(a1-6)]Man) was -0.249. For the same binder, the “glycan array binding signal (z-score)” value [12] was 0.644, the “glycan array binding signal (z-score)” value [13] was -0.185 and the “glycan array binding signal (z-score)” value [14] was -0.301. For the same binder, the “glycan array binding signal (z-score)” value [15] was 0.488, the “glycan array binding signal (z-score)” value [16] was -0.26 and the “glycan array binding signal (z-score)” value [17] was 0.022. The “glycan array binding signal (z-score)” value (Man(a1-6)Man) was -0.259, the “glycan array binding signal (z-score)” value [18] was -0.32 and the “glycan array binding signal (z-score)” value (Man(b1-4)GlcNAc) was 0.086. For the same binder, the “glycan array binding signal (z-score)” value [19] was -0.32, the “glycan array binding signal (z-score)” value [20] was 0.258 and the “glycan array binding signal (z-score)” value [21] was -0.32. For the same binder, the “glycan array binding signal (z-score)” value [22] was 0.066, the “glycan array binding signal (z-score)” value (MurNAc(b1-4)GlcNAc) was -0.179 and the “glycan array binding signal (z-score)” value (Neu(a2-3)Gal(b1-4)Glc) was 0.114. The “glycan array binding signal (z-score)” value [23] was -0.32, the “glycan array binding signal (z-score)” value [24] was -0.32 and the “glycan array binding signal (z-score)” value [25] was -0.32. For the same binder, the “glycan array binding signal (z-score)” value [26] was -0.32, the “glycan array binding signal (z-score)” value [27] was -0.224 and the “glycan array binding signal (z-score)” value (Neu(a2-6)Gal(b1-4)Glc) was 0.017. For the same binder, the “glycan array binding signal (z-score)” value [28] was -0.32, the “glycan array binding signal (z-score)” value [29] was -0.32 and the “glycan array binding signal (z-score)” value (Neu5Ac(a2-2)Glc) was -0.32. For the same binder, the “glycan array binding signal (z-score)” value [30] was -0.127, the “glycan array binding signal (z-score)” value [31] was -0.127 and the “glycan array binding signal (z-score)” value (Neu5Ac(a2-3)Gal) was -0.314. For the same binder, the “glycan array binding signal (z-score)” value [32] was -0.32, the “glycan array binding signal (z-score)” value [33] was 0.232 and the “glycan array binding signal (z-score)” value [34] was -0.18.
